The list shows a part of the results. Single values are uncertain, as repeats are few or missing.
Assays:
Experiment in all cases: cell count relative to DMSO control; melanoma cells; higher = more viable cells
Details in all cases: library dose: low library concentration; 72 h
[1] = test system: WM115
[2] = test system: WM1716
[3] = test system: WM1745
[4] = test system: WM3526
[5] = test system: WM3619
[6] = test system: WM451Lu
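Note: cell number obtained by counting DAPI-stained nuclei in high-throughput microscope images with image analysis software, screen run in 1,536-well plates.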

| SMILES | cell count [1] | cell count [2] | cell count [3] | cell count [4] | cell count [5] | cell count [6] |
| --- | --- | --- | --- | --- | --- | --- |
| Nc1ccn([C@@H]2O[C@H](CO)[C@@H](O)C2(F)F)c(=O)n1 [gemcitabine] + O=C(CCCCCCC(=O)Nc1ccccc1)NO [vorinostat] (first compound 0.0004 µM, partner dose 0.08 µM) | 107% | 125% | 61.5% | 104% | 61.3% | 78.8% |
| CC(=O)O[C@@]12CO[C@@H]1C[C@H](O)[C@@]1(C)C(=O)[C@H](O)C3=C(C)[C@@H](OC(=O)[C@H](O)[C@@H](NC(=O)OC(C)(C)C)c4ccccc4)C[C@@](O)([C@@H](OC(=O)c4ccccc4)[C@H]21)C3(C)C [Docetaxel] + CCN(CC)CCCCNc1ncc2cc(-c3cc(OC)cc(OC)c3)c(NC(=O)NC(C)(C)C)nc2n1 [PD173074] (first compound 0.0001 µM, partner dose 0.1 µM) | 66.7% | 44.4% | 52.8% | 45% | 79.5% | 58.2% |
| Nc1nc(F)nc2c1ncn2[C@@H]1O[C@H](CO)[C@@H](O)[C@@H]1O [fludarabine] + Cc1cc([N+](=O)[O-])ccc1NS(=O)(=O)c1cc(Cl)ccc1Cl [FH535] (first compound 0.2 µM, partner dose 1 µM) | 82.6% | 94.5% | 89.2% | 18.7% | 88.8% | 36.3% |
| CC(=O)O[C@@]12CO[C@@H]1C[C@H](O)[C@@]1(C)C(=O)[C@H](O)C3=C(C)[C@@H](OC(=O)[C@H](O)[C@@H](NC(=O)OC(C)(C)C)c4ccccc4)C[C@@](O)([C@@H](OC(=O)c4ccccc4)[C@H]21)C3(C)C [Docetaxel] + Cc1ccc(NC(=O)c2cccc(N(C)C)c2)cc1NC(=O)c1ccc(O)cc1 [ZM336372] (first compound 0.0001 µM, partner dose 2 µM) | 63% | 38.7% | 43.8% | 39.6% | 56.4% | 67.7% |
| CC(=O)O[C@@]12CO[C@@H]1C[C@H](O)[C@@]1(C)C(=O)[C@H](O)C3=C(C)[C@@H](OC(=O)[C@H](O)[C@@H](NC(=O)OC(C)(C)C)c4ccccc4)C[C@@](O)([C@@H](OC(=O)c4ccccc4)[C@H]21)C3(C)C [Docetaxel] + CO[C@H]1C[C@@H]2CC[C@@H](C)[C@@](O)(O2)C(=O)C(=O)N2CCCC[C@H]2C(=O)O[C@H]([C@H](C)C[C@@H]2CC[C@@H](OCCO)[C@H](OC)C2)CC(=O)[C@H](C)/C=C(\C)[C@@H](O)[C@@H](OC)C(=O)[C@H](C)C[C@H](C)/C=C/C=C/C=C/1C [everolimus] (first compound 0.0001 µM, partner dose 0.02 µM) | 55.3% | 35.2% | 51.7% | 40.6% | 69.7% | 63.2% |
| CO[C@H]1C[C@@H]2CC[C@@H](C)[C@@](O)(O2)C(=O)C(=O)N2CCCC[C@H]2C(=O)O[C@H]([C@H](C)C[C@@H]2CC[C@@H](OCCO)[C@H](OC)C2)CC(=O)[C@H](C)/C=C(\C)[C@@H](O)[C@@H](OC)C(=O)[C@H](C)C[C@H](C)/C=C/C=C/C=C/1C [everolimus] + C[C@@H]1CCN(C(=O)CC#N)C[C@@H]1N(C)c1ncnc2[nH]ccc12 [CP690550] (first compound 0.02 µM, partner dose 1 µM) | 72.9% | 78% | 93.3% | 78% | 81.5% | 83.3% |
| CO[C@H]1C[C@@H]2CC[C@@H](C)[C@@](O)(O2)C(=O)C(=O)N2CCCC[C@H]2C(=O)O[C@H]([C@H](C)C[C@@H]2CC[C@@H](OCCO)[C@H](OC)C2)CC(=O)[C@H](C)/C=C(\C)[C@@H](O)[C@@H](OC)C(=O)[C@H](C)C[C@H](C)/C=C/C=C/C=C/1C [everolimus] + Cc1cc(N2CCOCC2)cc2[nH]c(-c3c(NC[C@@H](O)c4cccc(Cl)c4)cc[nH]c3=O)nc12 [BMS536924] (first compound 0.02 µM, partner dose 0.2 µM) | 78.2% | 75.5% | 72.5% | 62% | 63.9% | 62.9% |
| CO[C@H]1C[C@@H]2CC[C@@H](C)[C@@](O)(O2)C(=O)C(=O)N2CCCC[C@H]2C(=O)O[C@H]([C@H](C)C[C@@H]2CC[C@@H](OCCO)[C@H](OC)C2)CC(=O)[C@H](C)/C=C(\C)[C@@H](O)[C@@H](OC)C(=O)[C@H](C)C[C@H](C)/C=C/C=C/C=C/1C [everolimus] + Oc1nc(-c2ccc(C(F)(F)F)cc2)nc2c1CSCC2 [XAV939] (first compound 0.02 µM, partner dose 2 µM) | 74.7% | 50.2% | 91.8% | 65.9% | 62.4% | 73% |
| Nc1ncn([C@H]2C[C@H](O)[C@@H](CO)O2)c(=O)n1 [decitabine] + CCCCCCCCCCCC1=C(O)C(=O)C=C(O)C1=O [Embelin] (first compound 0.1 µM, partner dose 1.2 µM) | 73.6% | 78.7% | 94.6% | 121% | 79.2% | 88.9% |
| CC(=O)O[C@@]12CO[C@@H]1C[C@H](O)[C@@]1(C)C(=O)[C@H](O)C3=C(C)[C@@H](OC(=O)[C@H](O)[C@@H](NC(=O)OC(C)(C)C)c4ccccc4)C[C@@](O)([C@@H](OC(=O)c4ccccc4)[C@H]21)C3(C)C [Docetaxel] + O=C(Nc1cccc(Cl)c1)Nc1ncc(CCNc2ncnc3ccsc23)s1 [SNS314] (first compound 0.0001 µM, partner dose 0.0008 µM) | 47.5% | 32.6% | 43.4% | 47.3% | 67.4% | 61.7% |
| CO[C@H]1C[C@@H]2CC[C@@H](C)[C@@](O)(O2)C(=O)C(=O)N2CCCC[C@H]2C(=O)O[C@H]([C@H](C)C[C@@H]2CC[C@@H](OCCO)[C@H](OC)C2)CC(=O)[C@H](C)/C=C(\C)[C@@H](O)[C@@H](OC)C(=O)[C@H](C)C[C@H](C)/C=C/C=C/C=C/1C [everolimus] + C[C@]1(c2nc3c(C(N)=O)cccc3[nH]2)CCCN1 [Veliparib] (first compound 0.02 µM, partner dose 1.4 µM) | 77.6% | 75.5% | 70.3% | 61.2% | 83.9% | 87.4% |
| Nc1ncn([C@H]2C[C@H](O)[C@@H](CO)O2)c(=O)n1 [decitabine] + COc1ccc2c(c1)CCC1C2CCC2(C)C(NCCCCCCN3C(=O)C=CC3=O)CCC12 [U73122] (first compound 0.1 µM, partner dose 0.4 µM) | 79.7% | 76.4% | 90.8% | 100% | 145% | 118% |
| CO[C@H]1C[C@@H]2CC[C@@H](C)[C@@](O)(O2)C(=O)C(=O)N2CCCC[C@H]2C(=O)O[C@H]([C@H](C)C[C@@H]2CC[C@@H](OCCO)[C@H](OC)C2)CC(=O)[C@H](C)/C=C(\C)[C@@H](O)[C@@H](OC)C(=O)[C@H](C)C[C@H](C)/C=C/C=C/C=C/1C [everolimus] + O=C(O)c1ccc(-c2c[nH]c3ncc(-c4ccccc4)cc23)cc1C1CCCC1 [GSK650394] (first compound 0.02 µM, partner dose 0.16 µM) | 82% | 80.6% | 102% | 86.9% | 81.7% | 85.4% |
| Nc1nc(F)nc2c1ncn2[C@@H]1O[C@H](CO)[C@@H](O)[C@@H]1O [fludarabine] + CO[C@@H]1[C@H](N(C)C(=O)c2ccccc2)C[C@H]2O[C@]1(C)n1c3ccccc3c3c4c(c5c6ccccc6n2c5c31)C(=O)NC4 [Midostaurin] (first compound 0.2 µM, partner dose 0.08 µM) | 79.3% | 73.3% | 79.7% | 22.1% | 112% | 41.9% |
| CO[C@H]1C[C@@H]2CC[C@@H](C)[C@@](O)(O2)C(=O)C(=O)N2CCCC[C@H]2C(=O)O[C@H]([C@H](C)C[C@@H]2CC[C@@H](OCCO)[C@H](OC)C2)CC(=O)[C@H](C)/C=C(\C)[C@@H](O)[C@@H](OC)C(=O)[C@H](C)C[C@H](C)/C=C/C=C/C=C/1C [everolimus] + CCc1ccc(CCOc2ccc(CC3SC(=O)NC3=O)cc2)nc1 [pioglitazone] (first compound 0.02 µM, partner dose 2 µM) | 85.1% | 79.2% | 76.6% | 71.6% | 87.8% | 81.4% |
| CC(=O)O[C@@]12CO[C@@H]1C[C@H](O)[C@@]1(C)C(=O)[C@H](O)C3=C(C)[C@@H](OC(=O)[C@H](O)[C@@H](NC(=O)OC(C)(C)C)c4ccccc4)C[C@@](O)([C@@H](OC(=O)c4ccccc4)[C@H]21)C3(C)C [Docetaxel] + OCCn1cc(-c2cnc3nnn(Cc4ccc5ncccc5c4)c3n2)cn1 [PF04217903] (first compound 0.0001 µM, partner dose 1 µM) | 50.3% | 31.8% | 53.6% | 42.5% | 66.2% | 52.2% |
| Nc1ccn([C@@H]2O[C@H](CO)[C@@H](O)C2(F)F)c(=O)n1 [gemcitabine] + Cn1cncc1[C@@](N)(c1ccc(Cl)cc1)c1ccc2c(c1)c(-c1cccc(Cl)c1)cc(=O)n2C [tipifarnib] (first compound 0.0004 µM, partner dose 0.01 µM) | 95.9% | 93.2% | 76.2% | 79.4% | 46.9% | 91.6% |
| Nc1ccn([C@@H]2O[C@H](CO)[C@@H](O)C2(F)F)c(=O)n1 [gemcitabine] + O=C(O)c1ccc(-c2c[nH]c3ncc(-c4ccccc4)cc23)cc1C1CCCC1 [GSK650394] (first compound 0.0004 µM, partner dose 0.16 µM) | 104% | 99.1% | 79.2% | 110% | 71.3% | 126% |
